# Whole data set: some 2,900 compounds, median “NF-kB SEAP reporter activity, fold change vs agonist alone” near 0.99, cut for the highest 2% near 2.6. The list shows a part of the results.
# Tests used:
# RAW-Dual [1] = experiment: NF-kB SEAP reporter activity, fold change vs agonist alone; higher = enhanced NF-kB activity; settings: cytotoxicity flag (confluency mask): not cytotoxic
# Method in brief: (§1)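 After 50 nL of library stock was delivered by pin tool to RAW-Dual macrophages (50,000 cells/well, DMEM, 384-well plates), a PRR agonist was added 1 h later and the plates were kept at 37 °C, 5% CO2. Twenty hours later, IRF was read from supernatant by QuantiLuc luminescence and NF-κB by QuantiBlue absorbance at 620 nm. Reporter activity is stated as fold change over agonist-alone wells. Wells with IncuCyte confluency under 70% of agonist controls in both mask sets were counted as cytotoxic.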
# RAW-Dual [2] = experiment: NF-kB SEAP reporter activity, fold change vs agonist alone; cytotoxicity flag (confluency mask): not cytotoxic; higher = enhanced NF-kB activity
# Method in brief: as §1
# [3] = library stock concentration (final ~1000-fold dilution): 10 mM, agonist: Imiquimod (TLR7) […]
# [4] = library stock concentration (final ~1000-fold dilution): 10 mM, agonist: MPLA (TLR4) […]
# [5] = agonist: ODN 1826 (TLR9) 0.5 ug/mL
# [6] = agonist: Pam2CSK4 (TLR2/6) 0.1 ug/mL
# [7] = agonist: Pam3CSK4 (TLR2/1) 0.1 ug/mL
compound,measurement,setting,value
CCCCNNC(=O)c1ccc(Br)cc1,NF-kB SEAP reporter activity,RAW-Dual [1]; [3],1.95
same,NF-kB SEAP reporter activity,RAW-Dual [1]; [4],2.28
CNc1nc(Nc2cnn(C3CCN(C4COC4)CC3F)c2Cl)ncc1C(F)(F)F (stereo unspecified) (library stock concentration (final ~1000-fold dilution): 10 mM),NF-kB SEAP reporter activity,RAW-Dual [2]; agonist: LPS (TLR4) 0.1 ug/mL,0.973
same,NF-kB SEAP reporter activity,RAW-Dual [2]; [5],1.06
same,NF-kB SEAP reporter activity,RAW-Dual [2]; [6],1.24
same,NF-kB SEAP reporter activity,RAW-Dual [2]; [7],1.57
CNc1nc(Nc2cnn(C3CCN(C4COC4)CC3F)c2Cl)ncc1C(F)(F)F (stereo unspecified),NF-kB SEAP reporter activity,RAW-Dual [1]; [3],1.06
same,NF-kB SEAP reporter activity,RAW-Dual [1]; [4],1.27
O=c1c2ccccc2nc(/C=C/c2cccnc2)n1Cc1ccccc1 (library stock concentration (final ~1000-fold dilution): 10 mM),NF-kB SEAP reporter activity,RAW-Dual [2]; agonist: LPS (TLR4) 0.1 ug/mL,0.688
same,NF-kB SEAP reporter activity,RAW-Dual [2]; [5],0.988
same,NF-kB SEAP reporter activity,RAW-Dual [2]; [6],1.22
same,NF-kB SEAP reporter activity,RAW-Dual [2]; [7],0.491
O=c1c2ccccc2nc(/C=C/c2cccnc2)n1Cc1ccccc1,NF-kB SEAP reporter activity,RAW-Dual [1]; [3],0.86
same,NF-kB SEAP reporter activity,RAW-Dual [1]; [4],0.915
CC(=O)Oc1cccc2c1C(=O)c1c(OC(C)=O)cc(C(=O)O)cc1C2=O (library stock concentration (final ~1000-fold dilution): 10 mM),NF-kB SEAP reporter activity,RAW-Dual [2]; agonist: LPS (TLR4) 0.1 ug/mL,1.62
same,NF-kB SEAP reporter activity,RAW-Dual [2]; [5],1.08
same,NF-kB SEAP reporter activity,RAW-Dual [2]; [6],1.41
same,NF-kB SEAP reporter activity,RAW-Dual [2]; [7],1.34
CC(=O)Oc1cccc2c1C(=O)c1c(OC(C)=O)cc(C(=O)O)cc1C2=O,NF-kB SEAP reporter activity,RAW-Dual [1]; [3],0.961
same,NF-kB SEAP reporter activity,RAW-Dual [1]; [4],1.07
CC(C)(C#N)c1ccc(N2C(=O)OCc3cnc4ccc(-c5cnc6ccccc6c5)cc4c32)cc1 (library stock concentration (final ~1000-fold dilution): 10 mM),NF-kB SEAP reporter activity,RAW-Dual [2]; agonist: LPS (TLR4) 0.1 ug/mL,0.974
same,NF-kB SEAP reporter activity,RAW-Dual [2]; [5],0.919
same,NF-kB SEAP reporter activity,RAW-Dual [2]; [6],0.699
same,NF-kB SEAP reporter activity,RAW-Dual [2]; [7],0.989
CC(C)(C#N)c1ccc(N2C(=O)OCc3cnc4ccc(-c5cnc6ccccc6c5)cc4c32)cc1,NF-kB SEAP reporter activity,RAW-Dual [1]; [3],0.847
same,NF-kB SEAP reporter activity,RAW-Dual [1]; [4],1.16
CN(C)c1ccc(-c2nc3c(N4CCN(CC(=O)Nc5nccs5)CC4)c(Cl)cnc3[nH]2)cc1 (library stock concentration (final ~1000-fold dilution): 2 mM),NF-kB SEAP reporter activity,RAW-Dual [2]; agonist: LPS (TLR4) 0.1 ug/mL,1.07
same,NF-kB SEAP reporter activity,RAW-Dual [2]; [5],1.3
same,NF-kB SEAP reporter activity,RAW-Dual [2]; [6],1.07
same,NF-kB SEAP reporter activity,RAW-Dual [2]; [7],1.49
CN(C)c1ccc(-c2nc3c(N4CCN(CC(=O)Nc5nccs5)CC4)c(Cl)cnc3[nH]2)cc1,NF-kB SEAP reporter activity,"RAW-Dual [1]; library stock concentration (final ~1000-fold dilution): 2 mM, agonist: Imiquimod (TLR7) […]",1.22
same,NF-kB SEAP reporter activity,"RAW-Dual [1]; library stock concentration (final ~1000-fold dilution): 2 mM, agonist: MPLA (TLR4) […]",1.24
O=C1c2ccc(Nc3ccc(F)cc3F)cc2CCc2ccc(OCC(O)CO)cc21 (stereo unspecified),NF-kB SEAP reporter activity,RAW-Dual [1]; [3],0.817
same,NF-kB SEAP reporter activity,RAW-Dual [1]; [4],1.33
O=C1c2ccc(Nc3ccc(F)cc3F)cc2CCc2ccc(OCC(O)CO)cc21 (stereo unspecified) (library stock concentration (final ~1000-fold dilution): 10 mM),NF-kB SEAP reporter activity,RAW-Dual [2]; agonist: LPS (TLR4) 0.1 ug/mL,0.949
same,NF-kB SEAP reporter activity,RAW-Dual [2]; [5],0.401
same,NF-kB SEAP reporter activity,RAW-Dual [2]; [6],0.236
same,NF-kB SEAP reporter activity,RAW-Dual [2]; [7],0.38
O=C(Nc1ncc([N+](=O)[O-])s1)c1ccccc1O,NF-kB SEAP reporter activity,RAW-Dual [1]; [4],0.945
O=C(Nc1ncc([N+](=O)[O-])s1)c1ccccc1O (library stock concentration (final ~1000-fold dilution): 10 mM),NF-kB SEAP reporter activity,RAW-Dual [2]; agonist: LPS (TLR4) 0.1 ug/mL,0.954
same,NF-kB SEAP reporter activity,RAW-Dual [2]; [5],1.21
same,NF-kB SEAP reporter activity,RAW-Dual [2]; [6],0.573
same,NF-kB SEAP reporter activity,RAW-Dual [2]; [7],0.684
CN(C)CCOC(c1ccc(Cl)cc1)c1ccccn1.O=C(O)/C=C\C(=O)O (stereo unspecified),NF-kB SEAP reporter activity,RAW-Dual [1]; [4],0.989
CN(C)CCOC(c1ccc(Cl)cc1)c1ccccn1.O=C(O)/C=C\C(=O)O (stereo unspecified) (library stock concentration (final ~1000-fold dilution): 10 mM),NF-kB SEAP reporter activity,RAW-Dual [2]; agonist: LPS (TLR4) 0.1 ug/mL,1.1
same,NF-kB SEAP reporter activity,RAW-Dual [2]; [5],0.846
same,NF-kB SEAP reporter activity,RAW-Dual [2]; [6],1.07
same,NF-kB SEAP reporter activity,RAW-Dual [2]; [7],1.09
Cl.O=C1C2CCCCC2C(=O)N1CCCCN1CCN(c2nsc3ccccc23)CC1 (stereo unspecified) (library stock concentration (final ~1000-fold dilution): 10 mM),NF-kB SEAP reporter activity,RAW-Dual [2]; agonist: LPS (TLR4) 0.1 ug/mL,0.671
same,NF-kB SEAP reporter activity,RAW-Dual [2]; [5],0.536
same,NF-kB SEAP reporter activity,RAW-Dual [2]; [6],0.848
same,NF-kB SEAP reporter activity,RAW-Dual [2]; [7],0.888
Cl.O=C1C2CCCCC2C(=O)N1CCCCN1CCN(c2nsc3ccccc23)CC1 (stereo unspecified),NF-kB SEAP reporter activity,RAW-Dual [1]; [4],0.868
O=C(OC1CC2CC3CC(C1)N2CC3=O)c1c[nH]c2ccccc12 (stereo unspecified) (library stock concentration (final ~1000-fold dilution): 10 mM),NF-kB SEAP reporter activity,RAW-Dual [2]; agonist: LPS (TLR4) 0.1 ug/mL,0.553
same,NF-kB SEAP reporter activity,RAW-Dual [2]; [5],0.608
same,NF-kB SEAP reporter activity,RAW-Dual [2]; [6],0.712
same,NF-kB SEAP reporter activity,RAW-Dual [2]; [7],0.66
O=C(OC1CC2CC3CC(C1)N2CC3=O)c1c[nH]c2ccccc12 (stereo unspecified),NF-kB SEAP reporter activity,RAW-Dual [1]; [4],0.823
CC(C)CC(NC(=O)C1OC1C(=O)O)C(=O)NCCCCNC(=N)N (stereo unspecified) (library stock concentration (final ~1000-fold dilution): 10 mM),NF-kB SEAP reporter activity,RAW-Dual [2]; agonist: LPS (TLR4) 0.1 ug/mL,0.999
same,NF-kB SEAP reporter activity,RAW-Dual [2]; [5],1.01
same,NF-kB SEAP reporter activity,RAW-Dual [2]; [6],1.12
same,NF-kB SEAP reporter activity,RAW-Dual [2]; [7],1.12
CC(C)CC(NC(=O)C1OC1C(=O)O)C(=O)NCCCCNC(=N)N (stereo unspecified),NF-kB SEAP reporter activity,RAW-Dual [1]; [3],0.971
same,NF-kB SEAP reporter activity,RAW-Dual [1]; [4],1.11
CC(C)c1ccc(C(=O)NC(=N)N)cc1S(C)(=O)=O,NF-kB SEAP reporter activity,RAW-Dual [1]; [3],0.914
same,NF-kB SEAP reporter activity,RAW-Dual [1]; [4],1.1
CC(C)c1ccc(C(=O)NC(=N)N)cc1S(C)(=O)=O (library stock concentration (final ~1000-fold dilution): 10 mM),NF-kB SEAP reporter activity,RAW-Dual [2]; agonist: LPS (TLR4) 0.1 ug/mL,1
same,NF-kB SEAP reporter activity,RAW-Dual [2]; [5],0.918
same,NF-kB SEAP reporter activity,RAW-Dual [2]; [6],0.983
same,NF-kB SEAP reporter activity,RAW-Dual [2]; [7],1.1
CCc1cncnc1N1CCN(Cc2nc3cc(C(F)(F)F)ccc3[nH]2)CC1 (library stock concentration (final ~1000-fold dilution): 10 mM),NF-kB SEAP reporter activity,RAW-Dual [2]; agonist: LPS (TLR4) 0.1 ug/mL,0.934
same,NF-kB SEAP reporter activity,RAW-Dual [2]; [5],1.18
same,NF-kB SEAP reporter activity,RAW-Dual [2]; [6],1.13
same,NF-kB SEAP reporter activity,RAW-Dual [2]; [7],1.69
CCc1cncnc1N1CCN(Cc2nc3cc(C(F)(F)F)ccc3[nH]2)CC1,NF-kB SEAP reporter activity,RAW-Dual [1]; [3],0.91
same,NF-kB SEAP reporter activity,RAW-Dual [1]; [4],0.753

# Reference: the supplement of paper PMC10037445
